Results are given in words; binding and its absence hold for the method and conditions named. Binding seen in cells or lysates may run through a third protein. Some binding calls cover weakened binding; strength is not graded here. Sequences can lack the tags named with a protein.

Assay [1] addresses T1, GST-TR4-FL (UniProt P49116).
T1 sequence: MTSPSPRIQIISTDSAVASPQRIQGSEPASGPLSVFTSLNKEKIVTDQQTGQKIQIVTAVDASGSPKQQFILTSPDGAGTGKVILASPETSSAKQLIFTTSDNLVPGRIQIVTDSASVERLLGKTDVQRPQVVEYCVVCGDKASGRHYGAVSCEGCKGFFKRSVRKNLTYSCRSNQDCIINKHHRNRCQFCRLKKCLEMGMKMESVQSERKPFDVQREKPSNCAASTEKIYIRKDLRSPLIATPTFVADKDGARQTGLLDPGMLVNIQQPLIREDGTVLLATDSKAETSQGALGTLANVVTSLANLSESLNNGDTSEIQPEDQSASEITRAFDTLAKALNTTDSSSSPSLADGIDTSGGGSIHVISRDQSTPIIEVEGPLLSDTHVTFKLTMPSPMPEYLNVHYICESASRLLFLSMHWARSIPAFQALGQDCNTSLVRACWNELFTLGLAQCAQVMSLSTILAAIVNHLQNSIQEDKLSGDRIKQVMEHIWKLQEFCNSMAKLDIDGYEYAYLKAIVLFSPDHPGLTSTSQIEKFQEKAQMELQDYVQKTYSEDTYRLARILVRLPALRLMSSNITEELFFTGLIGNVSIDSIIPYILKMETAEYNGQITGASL
The assay can be described thus: pull-down; GST pull-down of in vitro translated ^35S-labeled protein by purified GST-TR4 on beads, in the absence or presence of a non-radiolabeled in vitro translated competitor (TR4, Slug or Slug-2); only the target purified.

The target of assay [2] is T2, GST-TR4-∆C [aa 1–348] (UniProt P49116).
T2 sequence: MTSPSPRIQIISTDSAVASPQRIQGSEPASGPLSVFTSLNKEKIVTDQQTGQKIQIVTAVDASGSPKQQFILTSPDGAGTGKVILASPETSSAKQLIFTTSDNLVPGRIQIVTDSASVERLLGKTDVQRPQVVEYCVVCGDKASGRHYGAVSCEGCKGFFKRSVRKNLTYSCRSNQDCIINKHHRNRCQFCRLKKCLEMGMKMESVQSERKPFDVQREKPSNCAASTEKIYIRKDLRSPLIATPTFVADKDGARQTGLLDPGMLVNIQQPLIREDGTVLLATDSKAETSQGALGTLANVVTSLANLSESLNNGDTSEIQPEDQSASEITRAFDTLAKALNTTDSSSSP
The description is as above.

Assay [3] concerns the target T1, GST-TR4-FL. Put plainly: pull-down; purified GST fusion protein on glutathione-Sepharose-4B beads incubated 12 h at 4 °C with 5 μL of in vitro translated ^35S-labeled protein in GST binding buffer (50 mM HEPES pH 7.6, 50 mM NaCl, 0.1% Nonidet P-40, 5 mM EDTA, 10% glycerol); washes with 500 mM NaCl; SDS-PAGE and autoradiography; only the target purified.
The target in assay [4] is T2, GST-TR4-∆C [aa 1–348]. Described as above.
For assay [5], the target named is T1, GST-TR4-FL. The assay can be described thus: condition: only in the presence of non-radiolabeled TR4; pull-down; GST pull-down of in vitro translated ^35S-labeled protein by purified GST-TR4 on beads, in the absence or presence of a non-radiolabeled in vitro translated competitor (TR4, Slug or Slug-2); only the target purified.
For assay [6], the target named is T2, GST-TR4-∆C [aa 1–348]. The description is as above.

B1: in vitro translated Slug (protein, UniProt P97469 1-269)
chain: MPRSFLVKKHFNASKKPNYSELDTHTVIISPYLYESYPIPVIPKPEILTSGAYSPITVWTSSAAPLHSPLPSGLSPLTGYSSSLGRVSPPPSSDTSSKDHSGSESPISDEEERLQPKLSDPHAIEAEKFQCNLCNKTYSTFSGLAKHKQLHCDAQSRKSFSCKYCDKEYVSLGALKMHIRTHTLPCVCKICGKAFSRPWLLQGHIRTHTGEKPFSCPHCNRAFADRSNLRAHLQTHSDVKKYQCKNCSKTFSRMSLLHKHEESGCCVAH
modifications: ^35S label (non-radiolabeled where used as competitor)
For B1, the binding entry is “binds” in assay [1]; “binds” in assay [2]; “binds” in assay [3]; “binds” in assay [4]; “no binding” in assay [5]; “no binding” in assay [6].
